{"source": "paper PMC4336329", "about": "(PLoS ONE, 2015)", "note": "The whole screen tested about 310,000 compounds, of which about 2,200 (0.71%) showed an effect of 50% or more. The effect is printed as a negative number. The list shows a part of the results."}
{"biological_target": "human ether-à-go-go-related gene (hERG) potassium channel (human, UniProt Q12809)", "sequence (Q12809 whole entry, looked up)": "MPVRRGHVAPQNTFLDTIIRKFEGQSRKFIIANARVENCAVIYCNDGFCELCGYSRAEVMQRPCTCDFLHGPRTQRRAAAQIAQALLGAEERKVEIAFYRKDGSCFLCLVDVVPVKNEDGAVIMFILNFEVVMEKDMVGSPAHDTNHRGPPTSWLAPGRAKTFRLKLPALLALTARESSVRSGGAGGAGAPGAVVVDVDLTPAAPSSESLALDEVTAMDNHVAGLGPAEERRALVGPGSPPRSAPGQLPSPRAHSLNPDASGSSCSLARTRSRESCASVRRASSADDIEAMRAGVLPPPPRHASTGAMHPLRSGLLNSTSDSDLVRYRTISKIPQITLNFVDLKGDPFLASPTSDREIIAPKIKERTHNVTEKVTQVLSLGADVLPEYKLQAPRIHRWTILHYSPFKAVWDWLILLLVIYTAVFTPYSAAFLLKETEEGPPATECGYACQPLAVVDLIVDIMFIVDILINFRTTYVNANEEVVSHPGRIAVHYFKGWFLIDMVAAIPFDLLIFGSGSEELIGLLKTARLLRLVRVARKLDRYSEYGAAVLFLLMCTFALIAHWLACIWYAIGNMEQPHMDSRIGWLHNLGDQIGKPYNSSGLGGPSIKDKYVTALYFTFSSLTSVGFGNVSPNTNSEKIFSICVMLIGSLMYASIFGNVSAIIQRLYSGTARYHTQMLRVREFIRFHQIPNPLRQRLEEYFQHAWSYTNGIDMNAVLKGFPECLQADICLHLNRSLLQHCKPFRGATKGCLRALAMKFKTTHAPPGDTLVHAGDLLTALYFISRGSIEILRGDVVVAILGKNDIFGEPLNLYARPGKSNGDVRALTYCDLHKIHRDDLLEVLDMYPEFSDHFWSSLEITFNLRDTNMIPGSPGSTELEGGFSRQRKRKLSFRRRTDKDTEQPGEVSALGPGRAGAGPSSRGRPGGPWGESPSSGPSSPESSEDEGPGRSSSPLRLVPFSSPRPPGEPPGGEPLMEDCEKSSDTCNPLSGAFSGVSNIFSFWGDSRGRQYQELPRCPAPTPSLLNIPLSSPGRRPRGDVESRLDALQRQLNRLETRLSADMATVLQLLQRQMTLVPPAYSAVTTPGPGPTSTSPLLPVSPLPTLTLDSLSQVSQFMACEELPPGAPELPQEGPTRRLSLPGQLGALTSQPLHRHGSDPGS", "assay": "primary screen, population patch clamp on CHO cells stably expressing hERG", "units": {"hERG current change (%, negative = inhibition) at 1uM": "%"}}
{"smiles": "C#CC(CC)(CC)NC(=O)/C=C/C(=O)O", "hERG current change (%, negative = inhibition) at 1uM": 9.75}
{"smiles": "CN(CC(=O)Nc1ccccc1Cl)C(=O)CSc1ncc(C(F)(F)F)cc1Cl", "hERG current change (%, negative = inhibition) at 1uM": 12.1}
{"smiles": "O=C(Nc1nnc(-c2ccc(F)cc2)o1)C1CCCN1S(=O)(=O)c1cccs1", "note": "(centres unmarked)", "hERG current change (%, negative = inhibition) at 1uM": 3.66}
{"smiles": "C=CCn1c(C)nnc1SCC(=O)Nc1nccs1", "hERG current change (%, negative = inhibition) at 1uM": 14.8}
{"smiles": "CN(Cc1nc(-c2cnccn2)no1)CC(O)c1ccccc1", "note": "(centres unmarked)", "hERG current change (%, negative = inhibition) at 1uM": 7.88}
{"smiles": "CC(C)C(C(=O)Nc1ccc(N2CCOCC2)cc1)N1C(=O)c2ccccc2C1=O", "note": "(centres unmarked)", "hERG current change (%, negative = inhibition) at 1uM": 10}
{"smiles": "FC(F)(F)Oc1ccccc1-c1nnc(-c2cccc(C(F)(F)F)c2)o1", "hERG current change (%, negative = inhibition) at 1uM": 9.49}
{"smiles": "c1ccc(CCn2cnc3ccccc32)cc1", "hERG current change (%, negative = inhibition) at 1uM": 11.4}
{"smiles": "O=C(Nc1ccccc1)c1ccc(COc2ccccc2)cc1", "hERG current change (%, negative = inhibition) at 1uM": 14.5}
{"smiles": "COC(=O)c1ccccc1NC(=O)c1cnc2sccn2c1=O", "hERG current change (%, negative = inhibition) at 1uM": 15.6}
{"smiles": "CCC1(c2ccccc2)NC(=O)N(CC(=O)Nc2cc(Cl)ccc2N2CCN(C)CC2)C1=O", "note": "(centres unmarked)", "hERG current change (%, negative = inhibition) at 1uM": -0.399}
{"smiles": "CC(C)(C)c1ccc(CNC(=O)c2ccc3c(c2)NC(=O)CO3)cc1", "hERG current change (%, negative = inhibition) at 1uM": 6.83}
{"smiles": "O=C(O)CCCCCNC(=O)/C=C/c1ccco1", "hERG current change (%, negative = inhibition) at 1uM": 6.43}
{"smiles": "Cl.O.O=C1C2CCCCN2C(=O)N1CCCCN1CCN(c2ccccc2Oc2ccccc2)CC1", "note": "(centres unmarked)", "hERG current change (%, negative = inhibition) at 1uM": -24.2}
{"smiles": "COCCN(C(=O)Cc1cccs1)C(C(=O)NC1CCCC1)c1cc(OC)c(OC)c(OC)c1", "note": "(centres unmarked)", "hERG current change (%, negative = inhibition) at 1uM": 12.7}
{"smiles": "O=C(NCCc1c[nH]c2ccccc12)c1cc2sccc2n1Cc1ccccc1", "hERG current change (%, negative = inhibition) at 1uM": 4.65}
{"smiles": "COc1ccnc(Oc2ccc3ccccc3c2)c1C#N", "hERG current change (%, negative = inhibition) at 1uM": 6.98}
{"smiles": "CC(=O)Nc1ccc(NC(=O)C(C)OC(=O)c2ccc3c(c2)OCCO3)cc1", "note": "(centres unmarked)", "hERG current change (%, negative = inhibition) at 1uM": 14.1}
{"smiles": "Cc1ccc(C)c(C(C)NC(=O)c2ccncc2)c1", "note": "(centres unmarked)", "hERG current change (%, negative = inhibition) at 1uM": 0.292}
{"smiles": "CC(NC(=S)Nc1ccccc1C(F)(F)F)C1CC2CCC1C2", "note": "(centres unmarked)", "hERG current change (%, negative = inhibition) at 1uM": -6.39}
{"smiles": "O=C(CN1CCN(C(=O)CNC(=O)c2ccc3c(c2)OCO3)CC1)Nc1ccccc1Cl", "hERG current change (%, negative = inhibition) at 1uM": 7.42}
{"smiles": "CCn1cc(S(=O)(=O)c2ccc(C)cc2)[nH]c1=O", "hERG current change (%, negative = inhibition) at 1uM": 16.1}
{"smiles": "Cc1ccccc1/C=N/NC(=O)Cn1cnc([N+](=O)[O-])n1", "hERG current change (%, negative = inhibition) at 1uM": 3.03}
{"smiles": "COc1ccc(CCNC(=O)CNCCc2ccc(F)cc2)cc1.O=C(O)C(=O)O", "hERG current change (%, negative = inhibition) at 1uM": 1.57}
{"smiles": "C=CCC1NS(=O)(=O)OC2CCCCC12", "note": "(centres unmarked)", "hERG current change (%, negative = inhibition) at 1uM": 6.75}
{"smiles": "C/C(=N\\NC(=O)c1cnccn1)c1ccc([N+](=O)[O-])cc1", "hERG current change (%, negative = inhibition) at 1uM": 8.14}
{"smiles": "COc1ccccc1CN(C(=O)Cc1cccs1)C(C(=O)NC1CCCC1)c1ccncc1", "note": "(centres unmarked)", "hERG current change (%, negative = inhibition) at 1uM": 3.49}
{"smiles": "CC(=O)C1=C(C)Nc2ncnn2C1c1ccccc1F", "note": "(centres unmarked)", "hERG current change (%, negative = inhibition) at 1uM": 11.1}
{"smiles": "Fc1ccc(OCCOCCN2CCNCC2)cc1.O=C(O)C(=O)O", "hERG current change (%, negative = inhibition) at 1uM": 10.4}
{"smiles": "CCC(=O)Nc1ccc(Oc2ccc3c(c2)C(=O)NC3=O)cc1", "hERG current change (%, negative = inhibition) at 1uM": 15.8}
{"smiles": "Cc1ccc(-n2[nH]c(C)c(/C=N/N3C(=O)c4cccc5cccc(c45)C3=O)c2=O)cc1", "hERG current change (%, negative = inhibition) at 1uM": 13.9}
{"smiles": "CCOC(=O)Cn1cc(-c2ccccc2)nn1", "hERG current change (%, negative = inhibition) at 1uM": -4.75}
{"smiles": "O=C(CCC(=O)c1cccs1)NCc1ccncc1", "hERG current change (%, negative = inhibition) at 1uM": 13}
{"smiles": "O=C(O)CCCCCNS(=O)(=O)c1ccc2c(c1)OCCO2", "hERG current change (%, negative = inhibition) at 1uM": 8.35}
{"smiles": "O=C(NC1CS(=O)(=O)CC1NCc1ccco1)c1ccccc1", "note": "(centres unmarked)", "hERG current change (%, negative = inhibition) at 1uM": 2.64}
{"smiles": "CCOC(=O)C1=C(N)n2c(s/c(=C/c3ccco3)c2=O)=C(C(=O)OC)C1c1ccco1", "note": "(centres unmarked)", "hERG current change (%, negative = inhibition) at 1uM": 6.24}
{"smiles": "COC(=O)C(C)Sc1nnc(Cc2cc(=O)[nH]c(=O)[nH]2)n1-c1cc(C)ccc1C", "note": "(centres unmarked)", "hERG current change (%, negative = inhibition) at 1uM": 9.21}
{"smiles": "Nn1c(SCc2ccc(Br)cc2)nnc1-c1ccccn1", "hERG current change (%, negative = inhibition) at 1uM": 14.5}
{"smiles": "Cc1ccc(NC(=O)CC2OC(=O)c3ccccc32)cc1S(=O)(=O)N1CCOCC1", "note": "(centres unmarked)", "hERG current change (%, negative = inhibition) at 1uM": 4.7}
{"smiles": "CN1CCN(NC(=O)c2ccc(S(=O)(=O)N3CCCCCC3)cc2)CC1.Cl", "hERG current change (%, negative = inhibition) at 1uM": 3.69}
{"smiles": "CC(C)CNc1nnnc2c1sc1nc(N3CCOCC3)c3c(c12)CC(C)(C)SC3", "hERG current change (%, negative = inhibition) at 1uM": 11.5}
{"smiles": "CC(NS(=O)(=O)c1ccc([N+](=O)[O-])cc1)C(c1cccs1)N1CCOCC1", "note": "(centres unmarked)", "hERG current change (%, negative = inhibition) at 1uM": 13.9}
{"smiles": "COc1ccc(C(C#N)(CCC#N)CCC#N)cc1OC", "hERG current change (%, negative = inhibition) at 1uM": -10}
{"smiles": "Cc1cc(=O)oc2cc(NC(=O)c3ccccc3C(=O)O)ccc12", "hERG current change (%, negative = inhibition) at 1uM": 16.8}
